Data reported in PubChem BioAssay AID2147 (National Center for Advancing Translational Sciences (NCATS), 2009).
The whole screen tested about 230,000 compounds, of which about 3,600 (1.6%) were called active. The shares of active, inactive and inconclusive entries below differ from those in the screen. Calls follow the shape of the dose curve; as a rule, active = well fitted inhibition curve with a large enough effect (not every such curve was filed as active); inconclusive = small, poorly fitted or top-dose-only effect, or another doubt; inactive = no such curve, though single readings can be large or run the other way. Where the call is inconclusive, the potency comes from a doubtful curve fit.

Target: Lysine-specific demethylase 4E (Homo sapiens) (UniProt B2RXH2)
Assay: qHTS Assay for Inhibitors of Human Jumonji Domain Containing 2E (JMJD2E)
Details: JMJD2E catalytic domain, FDH-coupled NADH fluorescence (FDH is formaldehyde dehydrogenase); series mostly up to 57.1 µM
Also: nearly all actives have a fitted effect of over 50% in size.
Potency is read from the fitted curve at half-maximal effect; tags tell the direction and shape of the fitted curve.

Sequence of UniProt B2RXH2 (B2RXH2 whole entry, looked up, the tested form may be a part): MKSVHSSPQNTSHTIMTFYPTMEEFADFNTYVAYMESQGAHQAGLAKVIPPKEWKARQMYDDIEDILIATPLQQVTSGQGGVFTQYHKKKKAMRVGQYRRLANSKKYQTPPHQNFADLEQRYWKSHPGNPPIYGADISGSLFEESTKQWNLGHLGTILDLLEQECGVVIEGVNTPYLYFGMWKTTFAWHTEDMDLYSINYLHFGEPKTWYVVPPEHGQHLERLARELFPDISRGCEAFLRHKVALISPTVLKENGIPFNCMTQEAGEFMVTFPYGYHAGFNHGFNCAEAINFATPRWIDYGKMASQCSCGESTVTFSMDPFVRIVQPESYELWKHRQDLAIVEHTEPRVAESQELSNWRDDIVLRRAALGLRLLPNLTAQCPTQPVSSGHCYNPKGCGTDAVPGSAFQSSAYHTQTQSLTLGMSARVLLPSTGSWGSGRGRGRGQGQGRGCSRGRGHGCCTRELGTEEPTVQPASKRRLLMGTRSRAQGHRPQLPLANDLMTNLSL

Row | Structure (SMILES) | Potency
1 | CSc1nc(SCC(=O)NCC2CCCO2)c2c3c(sc2n1)CN(C)CC3 (configuration not stated) | inconclusive: 31.6 µM [inhibitor, partial curve]
2 | O=C(/C=C/c1ccco1)Nc1cccc(NC(=O)/C=C/c2ccco2)n1 | inconclusive: 35.5 µM [inhibitor, single point]
3 | Cc1cc(=O)[nH]c2cc(O)ccc12 | inconclusive: 35.5 µM [inhibitor, partial curve]
4 | COc1ccc(/C=C/C2=CCN(Cc3ccc(OC)cc3)CC2)cc1 | active: 28.2 µM
5 | Cc1onc(-c2c(Cl)cccc2Cl)c1C(=O)NN1CCCCCC1 | inactive
6 | N#C/C(C(=O)Oc1ccccc1)=C1\C=Cc2ccccc2N1 | inconclusive: 31.6 µM [inhibitor, single point]
7 | N#Cc1ccccc1CN1C(=O)S/C(=C/c2cccn2-c2ccc(C(=O)O)cc2)C1=O | inactive
8 | COc1ccc(C2C(=O)N(C3CCCCC3)CC(=O)N2CCc2ccccc2)cc1OC (configuration not stated) | inactive
9 | Cc1ccc(-n2nc3ccc(N)cc3n2)cc1 | inconclusive: 25.1 µM [inhibitor, partial curve]
10 | O=C1N=C(c2ccccc2)C(c2ccccc2)N1 (configuration not stated) | inconclusive: 28.2 µM [inhibitor, partial curve]
11 | CCOC(=O)c1c(N)n(CCOC(=O)c2cccs2)c2nc3ccccc3nc12 | inconclusive: 28.2 µM [inhibitor, partial curve]
12 | N#C/C(=C\c1ccc(Sc2ccc(Cl)cc2)o1)c1nc2ccccc2[nH]1 | inactive
13 | Cc1ccc(NC(=O)Cn2c(=S)[nH]c3ccccc32)cc1 | inactive
14 | CC(=O)[C@H](CC(C)C)NC(=O)[C@@H](CC(C)C)NC(=O)[C@H](CC(C)C)NC(=O)OCc1ccccc1 | inactive
15 | Cc1ccc2nc(N3CCN(S(=O)(=O)c4ccc(C)c(Cl)c4)CC3)c(C#N)cc2c1 | inconclusive: 28.2 µM [inhibitor, single point]
16 | CS(=O)(=O)N1CCN(c2ccccc2NC(=O)c2cccs2)CC1 | inactive
17 | O=C(NNC(=O)c1cccc(O)c1)Nc1ccc([N+](=O)[O-])cc1 | inconclusive: 39.8 µM [inhibitor, single point]
18 | CCC(=O)Nc1cc2c(cc1C(=O)c1ccccc1)OCCO2 | inactive
19 | O=[N+]([O-])c1ccc2[nH]nc(-c3ccccc3)c2c1 | inactive
20 | CCn1c(C)c(C(C)=O)cc(C#N)c1=O | inactive
21 | COc1cc(/C=N/Nc2nncn2/N=C/c2ccc(O)c(OC)c2)ccc1O | inconclusive: 8.91 µM [inhibitor, partial curve]
22 | Cc1ccc(C(=O)COC(=O)CNC(=O)COc2ccccc2C)cc1C | inactive
23 | Cc1cccn2c(=O)c3cc(C#N)c(=N)n(Cc4ccncc4)c3nc12 | inconclusive: 3.55 µM [inhibitor, full curve]
24 | Cc1ccccc1Nc1cc(C)c2c(O)cccc2n1 | inactive

Row | Structure (SMILES) | Potency
25 | COc1ccc(-c2nc(CS(=O)CC(=O)NCc3cccnc3)c(C)o2)cc1 (configuration not stated) | inconclusive: 31.6 µM [inhibitor, single point]
26 | CC(C)=CCC/C(C)=C/C=N/NC(=O)c1ccccc1[N+](=O)[O-] | inconclusive: 31.6 µM [inhibitor, single point]
27 | O=C(CSc1ccc(-c2ccco2)nn1)NCc1ccccc1Cl | inconclusive: 39.8 µM [inhibitor, single point]
28 | CCn1c(-c2ccc(N)cc2)nc2ccccc21 | inconclusive: 28.2 µM [inhibitor, partial curve]
29 | Cc1ccc(-n2nc(-c3ccco3)cc2C(=O)O)c(C)c1 | inconclusive: 39.8 µM [inhibitor, single point]
30 | Cc1ccc2[nH]c(=O)c(CNS(=O)(=O)c3ccccc3)c(-c3ccccc3)c2c1 | inconclusive: 22.4 µM [inhibitor, partial curve]
31 | Cc1ccc(S(=O)(=O)Nc2ccc(Cl)cc2)cc1NC(=O)c1cc2c(s1)CCCC2 | inconclusive: 31.6 µM [inhibitor, single point]
32 | O=C(O)c1cnc(-c2ccccc2)nc1Sc1ccccc1 | inactive
33 | COc1ccc2cc(C(=O)NCC(=O)O)sc(=O)c2c1OC | inconclusive: 39.8 µM [inhibitor, single point]
34 | N#CC1=C(N)SC(N)=C(C#N)C1c1c(Cl)cccc1Cl | inconclusive: 39.8 µM [inhibitor, single point]
35 | Cc1ccc2[nH]c(=O)c(CN3CCCCC3)c(-c3ccccc3)c2c1 | inconclusive: 31.6 µM [inhibitor, partial curve]
36 | Cc1ccc(OCC(=O)NCc2ccco2)cc1C | inactive
37 | Cc1cc(C(=O)NCCCN2CC(C)CC(C)C2)n(-c2ccccc2)n1 (configuration not stated) | inactive
38 | O=C(Cc1ccccc1)NNc1ccc2ccccc2c1 | active: 25.1 µM
39 | CC(C)(O)C#Cc1ccc(C(=O)N2CCN(c3ccccc3)CC2)cc1 | inactive
40 | COC(=O)C(NC(C)=O)(Nc1ccc(C)cn1)C(F)(F)F (configuration not stated) | inconclusive: 39.8 µM [inhibitor, single point]
41 | Clc1ccc(Nc2ccc(-n3ccnc3)nn2)cc1Cl | inactive
42 | CN(C)[C@@H]1C(=O)C(C(N)=O)=C(O)[C@]2(O)C(=O)C3=C(O)c4c(O)ccc(Cl)c4[C@H](O)[C@H]3C[C@@H]12 | inconclusive: 14.1 µM [inhibitor, partial curve, poor fit]
43 | C=CCn1c(=N)c(C(=O)NCCCOC)cc2c(=O)n3cc(C)ccc3nc21 | inconclusive: 14.1 µM [inhibitor, partial curve]
44 | CC(=O)Oc1ccc(N2C(=O)C3C4C=CC(C5CC45)C3C2=O)cc1[N+](=O)[O-] (configuration not stated) | inactive
45 | COc1ccc(/C=N/NC(=O)Nc2cccc3nsnc23)c(OC)c1 | inconclusive: 8.91 µM [inhibitor, full curve]
46 | COc1cc2[nH]c(-c3cccc(F)c3)cc(=O)c2cc1OC | inconclusive: 28.2 µM [inhibitor, partial curve]
47 | Cc1cccc(OCCCN2CCCCCC2)c1 | inconclusive: 31.6 µM [inhibitor, single point]
48 | CC(C)(C)C1CCc2onc(C(=O)Nc3cnn(Cc4ccc(F)cc4)c3)c2C1 (configuration not stated) | inconclusive: 31.6 µM [inhibitor, single point]

Row | Structure (SMILES) | Potency
49 | NS(=O)(=O)c1ccc(N=Nc2c[nH]c(=O)c(O)c2)cc1 | active: 31.6 µM
50 | Cc1cnc(CNc2cc(-c3ccoc3)ncn2)cn1 | inconclusive: 25.1 µM [inhibitor, single point]
51 | CCCn1c2ccc(/C(C)=N\O)cc2c2cc(/C(C)=N/O)ccc21 | inconclusive: 35.5 µM [inhibitor, single point]
52 | CC1(OC(=O)CCc2ccccc2)C(=O)C=C2C=C(c3ccc(C#N)cc3)N(Cc3ccco3)C=C2C1=O (configuration not stated) | inconclusive: 22.4 µM [inhibitor, single point]
53 | O=C(O)CCCCCN1C(=O)C(O)=C(C(=O)/C=C/c2ccccc2)C1c1ccc2c(c1)OCO2 (configuration not stated) | inconclusive: 20 µM [inhibitor, partial curve, poor fit]
54 | O=C(c1ccccc1)c1ccc(O)cc1O | inactive
55 | COc1ccccc1/C=C/C=N/N1CCN(Cc2ccc(Cl)cc2)CC1 | inconclusive: 39.8 µM [inhibitor, single point]
56 | CN(C)c1nc(N(C)C)nc(N2CC(=O)N(c3ccccc3)C2=N)n1 | inactive
57 | C=CCn1c(=O)/c(=C/c2cc(OC)c(OC)c(OC)c2)s/c1=C(/C#N)c1nc2ccccc2n1C | inactive
58 | Cc1ccccc1Nc1nc(-c2sc(NC(=O)c3ccccc3)nc2C)cs1 | inconclusive: 17.8 µM [inhibitor, single point]
59 | CC(=O)N(C(C)=O)c1ncnc2c1c(-c1ccc(Cl)cc1)nn2C(C)(C)C | inconclusive: 28.2 µM [inhibitor, partial curve]
60 | COC(=O)CCC(C)C1CCC2C3C(O)C[C@@H]4CC(O)CC[C@@]4(C)C3CC(O)[C@]12C (some centres not stated) | inactive
61 | COc1cc(/C=N\NC(=O)c2ccc(C)nc2)ccc1OC(=O)c1ccc2c(c1)OCO2 | inconclusive: 39.8 µM [inhibitor, single point]
62 | CC(O)CNCCCOc1cccc(Oc2ccccc2)c1 (configuration not stated) | inconclusive: 31.6 µM [inhibitor, single point]
63 | CCOc1ccc(/C=C2/C(=O)N(c3ccc(OC)cc3)C(=S)N2CC(=O)OC)cc1OCC | inconclusive: 28.2 µM [inhibitor, single point]
64 | Fc1ccc(-n2c(Cn3nnc4ccccc43)n[nH]c2=S)cc1 | inconclusive: 39.8 µM [inhibitor, single point]
65 | CC1CCN(CCOCCOc2ccccc2Br)CC1 | inconclusive: 4.47 µM [inhibitor, partial curve]
66 | O=C(CCl)NC1(C(F)(F)F)C(=O)Nc2c1c(=O)[nH]c(=O)n2-c1ccccc1 (configuration not stated) | inactive
67 | N#CCSc1nccc(-c2cc(Cl)sc2Cl)n1 | inconclusive: 39.8 µM [inhibitor, single point]
68 | Cc1ccccc1N1CCN(S(=O)(=O)C[C@]23CCC(CC2NC(=O)[C@@H](N)CCS(C)(=O)=O)C3(C)C)CC1 (some centres not stated) | inactive
69 | O=C(NCCc1ccc(Cl)cc1)Nc1ccc(Cl)cc1 | inactive
70 | c1ccc2c(c1)nc(N1CCOCC1)c1c3ccccc3[nH]c21 | inconclusive: 31.6 µM [inhibitor, partial curve]
71 | CCOC(=O)c1ccc(NC(=O)C(=O)NCc2ccc(/C=C(/C#N)C(=O)NCCOC)o2)cc1 | inconclusive: 31.6 µM [inhibitor, single point]
72 | Cn1cc(Cl)c(C(=O)Nc2nc3ccccc3s2)n1 | inconclusive: 39.8 µM [inhibitor, single point]
